{"source": "paper PMC11243198", "about": "“Identification of Novel GANT61 Analogs with Activity in Hedgehog Functional Assays and GLI1-Dependent Cancer Cells” (Molecules, 2024)", "key": {"[1]": {"system": "Hh pathway in C3H10T1/2 cells", "assay": "C3H10T1/2 Hedgehog-responsive cell-based assay, alkaline phosphatase (AP) fluorescence readout", "set-up": "species or system murine", "settings": "for EC50: agonist dose response, 5 days, read-out: EC50 of Smo agonist, C3H10T1/2 AP activity"}, "U87MG cells": {"system": "U87MG cells", "assay": "Cancer cell viability MTT assay, U87MG", "assay_type": "cell-based, human", "settings": "72 h", "protocol": "(§1) Glioma cell lines T98G and U87MG were plated in 384-well (clear, flat-bottomed) plates in EMEM/10% FBS (50 µL) at densities of 1500 and 2500 cells/well, respectively. Lung cancer cell lines SK-MES-1 and H1437 were plated at cell densities of 1000 cells/well in 50 µL EMEM and 2000 cells/well in 50 µL RPMI-1640, respectively. After 24 h, cells were treated with selected GANT61 analog compounds using a 10-point, 2-fold dose–response curve (0.098–50 µM) and incubated at 37 °C for 72 h. To assess cell viability, MTT was added to each well at a final concentration of 0.5 mg/mL using a Biomek®NX (Brea, CA, USA) automated liquid handler followed by incubation for 4 h at 37 °C. Media and MTT were then removed, DMSO (40 µL) was added to each well to dissolve the formed formazan crystals, and they were incubated for 1 h. Absorbance was then measured at 550 nm using a SpectraMax plate reader (Molecular Devices, San Jose, CA, USA). Cells treated with 0.1% DMSO were used as a control. The absorbance values from compound-treated wells were normalized to the control. The normalized absorbance values were used to calculate the percentage of viable cells remaining after treatment with the compounds. Data were analyzed using Prism 9 (GraphPad, Boston, MA, USA)."}, "T98G cells": {"system": "T98G cells", "assay": "Cancer cell viability MTT assay, T98G", "assay_type": "cell-based, human", "settings": "72 h", "protocol": "as §1"}, "SK-MES-1 cells": {"system": "SK-MES-1 cells", "assay": "Cancer cell viability MTT assay, SK-MES-1", "assay_type": "cell-based, human", "protocol": "as §1"}, "H1437 cells": {"system": "H1437 cells", "assay": "Cancer cell viability MTT assay, H1437", "assay_type": "cell-based, human", "settings": "72 h, cells with minimal GLI expression", "protocol": "as §1"}, "Gli1 mRNA expression": {"system": "Gli1 mRNA expression", "settings": "SAG 30 nM; for reduction of Gli1 mRNA expression compared to SAG-treated cells: 10 μM"}, "C3H10T1/2 cells": {"system": "C3H10T1/2 cells", "assay": "Cytotoxicity assay (Hoechst 33342 nuclei count) in C3H10T1/2 cells", "assay_type": "cell-based, murine", "settings": "20 μM, 5 days, SAG-stimulated", "protocol": "(§2) These cells were stimulated with SAG, selected GANT61 analogs added in dose–response, and the effects on cell number determined using the nuclear stain Hoechst 33342 [70].\n(§3) Cells were plated and treated with SAG (at its EC50 concentration), and compounds were added in dose–response as above. […] For Gli reporter NIH3T3 cells, Hoechst dye was added 24 h after treatment. Cells were incubated with the Hoechst dye for 45 min at 37 °C. Following incubation, cells were washed with (50 μL) PBS (phosphate-buffered saline), fixed with formalin (20 μL), and incubated in the dark at room temperature for 15 min. After fixing the cells, formalin was removed, and 50 μL of PBS added. High-content imaging was performed using a Cellinsight NXT system (Thermo Fisher) at an excitation wavelength of 386 nm. Data were analyzed using GraphPad Prism 9."}, "[2]": {"system": "Gli reporter NIH3T3 cells", "assay": "Cytotoxicity assay (Hoechst 33342 nuclei count) in Gli reporter NIH3T3 cells", "assay_type": "cell-based", "settings": "30 h", "protocol": "as §2, §3"}, "[3]": {"system": "Gli-luciferase reporter NIH3T3 cell line", "assay": "Gli-luciferase NIH3T3 reporter assay", "assay_type": "cell-based", "protocol": "In these engineered NIH3T3 cells, the gene for firefly luciferase was stably integrated to be under the transcriptional control of Gli-responsive elements.\nGli reporter NIH3T3 cells (BPS Bioscience, catalog# 60409), a stable cell line that contains firefly luciferase gene under the control of Gli-responsive elements, were used to measure Hh pathway activity. Cells were grown in 96-well plates at a density of 25,000 cells/well for 24 h in Thaw Medium 5 (BPS Bioscience). After 24 h, the medium was replaced with fresh assay media (100 μL) using a Biomek®NX (Brea, CA, USA) automated liquid handler. […] To assess inhibition, the GANT61 analogs were added (serial dilutions of 0.098 to 50 μM) using a D300 system, and cells were then incubated at 37 °C for 30 h. Firefly luciferase activity was measured using the One-Step Luciferase Assay, according to vendor’s protocol (BPS Bioscience, catalog # 60690-1). Briefly, One-Step luciferase reagent (100 μL) was added to each well and incubated by shaking for 20 min at room temperature, followed by luminescence detection using a GloMax plate reader (Promega). To account for background luminescence, cell-free control wells were included. The background-subtracted luminescence of cells stimulated with SAG alone was set as 100% luminescence for calculating percent inhibition of the test compounds. […]"}}, "note": "Where “and” joins values, the source holds several entries; their conditions need not be identical. Identical values can stand only once. Like-named read-outs stand apart in the source and are kept apart here.", "data": [{"smiles": "c1cc(CNc2ccc(N3CCCC3)cc2)ccn1", "note": "[BAS 07019774, pyridin-4-ylmethyl-(4-pyrrolidin-1-yl-phenyl)-amine]", "values": [{"measurement": "Activity among the fifty-two analogs screened (preliminary SAR)", "setting": "[1]; screening for Hh pathway inhibition", "value": "active"}, {"measurement": "IC50", "setting": "U87MG cells; Homo sapiens, U-87 MG", "value": 9500, "unit": "nM"}, {"measurement": "IC50", "setting": "T98G cells; Homo sapiens, T98G", "value": 29500, "unit": "nM"}, {"measurement": "IC50", "setting": "SK-MES-1 cells; Homo sapiens, SK-MES-1, 72 h", "value": 9300, "unit": "nM"}, {"measurement": "effect on H1437 cell viability", "setting": "H1437 cells", "value": "did not affect the viability"}, {"measurement": "reduction of Gli1 mRNA expression compared to SAG-treated cells", "setting": "Gli1 mRNA expression; 48 h", "value": 4.9, "unit": "fold"}, {"measurement": "reduction of Gli1 mRNA expression compared to SAG-treated cells", "setting": "Gli1 mRNA expression; 96 h", "value": 2.2, "unit": "fold"}]}, {"smiles": "N#Cc1ccc(C(=O)Nc2ccccc2C(=O)NC2CC2)cc1", "note": "[Compound Z27610715]", "values": [{"measurement": "effect on U87MG cell viability", "setting": "U87MG cells", "value": "minimal effect"}, {"measurement": "reduction in T98G cell viability", "setting": "T98G cells; 50 μM", "value": 19.2, "unit": "%"}, {"measurement": "reduction of Gli1 mRNA expression compared to SAG-treated cells", "setting": "Gli1 mRNA expression; 48 h", "value": "ineffective"}, {"measurement": "reduction of Gli1 mRNA expression compared to SAG-treated cells", "setting": "Gli1 mRNA expression; 96 h", "value": 4.5, "unit": "fold"}]}, {"smiles": "CN(C)c1ccccc1CN1CCCN(Cc2ccccc2N(C)C)C1c1ccncc1", "note": "[GANT61]", "values": [{"measurement": "reduction of C3H10T1/2 cell number", "setting": "C3H10T1/2 cells", "value": 93.5, "unit": "%"}, {"measurement": "cell count reduction, Gli reporter NIH3T3", "setting": "[2]; 25 μM", "value": 49.4, "unit": "%"}, {"measurement": "cell count reduction, Gli reporter NIH3T3", "setting": "[2]; 50 μM", "value": 86.5, "unit": "%"}, {"measurement": "effect on U87MG cell viability", "setting": "U87MG cells", "value": "less effective than BAS 07019774"}, {"measurement": "effect on SK-MES-1 cell viability", "setting": "SK-MES-1 cells; 72 h", "value": "modest effect"}, {"measurement": "effect on H1437 cell viability", "setting": "H1437 cells", "value": "some effect on the viability of these cells at high concentrations"}, {"measurement": "reduction of Gli1 mRNA expression compared to SAG-treated cells", "setting": "Gli1 mRNA expression; 48 h", "value": 20.4, "unit": "fold"}]}, {"smiles": "CC1=C2C[C@H]3[C@@H](CC=C4CC(=O)CC[C@@]43C)[C@@H]2CC[C@]12O[C@@H]1C[C@H](C)CN(CCNC(=O)CCCCCNC(=O)CCc3ccccc3)[C@H]1[C@H]2C", "note": "[KAAD-cyc, KAAD-cyclopamine, reference compound]", "values": [{"measurement": "IC50", "setting": "[1]; read-out: IC50 of positive inhibitor control, C3H10T1/2 AP fluorescence", "value": "6.2 nM and 6 nM"}, {"measurement": "IC50", "setting": "[3]; SAG 26 nM, read-out: IC50 of positive control inhibitor, Gli-luciferase NIH3T3", "value": "9 nM and 8.8 nM"}, {"measurement": "decrease of SAG-induced Gli1 mRNA expression", "setting": "Gli1 mRNA expression; KAAD-cyc 40 nM (IC90), 48 h", "value": "six-fold decrease"}]}, {"smiles": "c1ccc2c(Oc3nc(Nc4ccc(N5CCOCC5)cc4)c4ncn(C5CCCCC5)c4n3)cccc2c1", "note": "[PUR, Purmorphamine, reference compound]", "values": [{"measurement": "EC50", "setting": "[1]; Mus musculus, C3H 10T1/2, 120 h", "value": 500, "unit": "nM"}]}, {"smiles": "CNC1CCC(N(Cc2cccc(-c3ccncc3)c2)C(=O)c2sc3ccccc3c2Cl)CC1", "note": "(centres unmarked) [SAG, reference compound]", "values": [{"measurement": "EC50", "setting": "[1]", "value": 30, "unit": "nM"}, {"measurement": "EC50", "setting": "[3]; agonist dose response, 30 h", "value": 26, "unit": "nM"}, {"measurement": "increase of Gli1 mRNA expression versus untreated cells", "setting": "Gli1 mRNA expression; 48 h", "value": 27, "unit": "fold"}, {"measurement": "increase of Gli1 mRNA expression versus untreated cells", "setting": "Gli1 mRNA expression; 96 h", "value": 278, "unit": "fold"}]}]}
